Reference: patent US20060122119A1, “Peptides for use in antitumor immunotherapy” (Institut Nat'l De La Sante Et De La Recherche Med., priority 2002, published 2006)
Ends that are not written are not given here.

Key:
[1] = target: T1, HLA-B35 (Homo sapiens, UniProt P01889, A329T/A93T/A95T/C349S/D201E/D98Y/E176V/E187L/E204Q/E69T/I218V/K202T/L119I/Q94N/R155S/R180L/S121R/S35A/S48A/T118I/V127L/V306I/V36M/Y140S/Y91F); test: Stability of the peptide on HLA-B*35: BM36.1 cells, BFA block, flow cytometry; type: binding; conditions: BM36.1 cells incubated 18 h with 100 μM peptide, then BFA
[2] = target: T1, HLA-B35; test: Relative affinity for HLA-B35: HLA-B35 stabilization at the BM36.1 cell surface, flow cytometry; conditions: [peptide] for 20% binding / [peptide 37F] for 20% binding; BM36.1 cells, 18 h
[3] = test system: BM36.1 cells; test: 51Cr-release lysis of ras-peptide-pulsed BM36.1 cells by a T clone induced with 55-64^Q61R; type: cell-based; conditions: 10 μM peptide; 5×10^3 T cells to 10^3 BM36.1 cells; 4 hours
Protocol: Lymphocyte clones were obtained by limiting dilution from the cells of the culture wells containing 0.5% of reactive T cells.
The cells are then pulsed for 1 hour at 37° C. with 10 μM of peptide 55-64^WT or of peptide 55-64^Q61R, and washed. […] The culture supernatants are recovered and the percentage of released ^51Cr is evaluated.

[4] = test system: clone M28.10B; conditions: read-out: EC 50 (amount of peptide necessary to obtain 50% of the maximum lysis), BM36.1 cells, effector:target 10:1, 4 hours
[5] = test system: clone M118.45; conditions: read-out: EC 50 (amount of peptide necessary to obtain 50% of the maximum lysis), BM36.1 cells, effector:target 10:1, 4 hours

Sequence | Stability (half-life time of the peptide on the HLA-B*35) [1] [h] | RA (relative affinity) [2] | also measured
MPFATPMEAE | >6 | – | –
MPFATPMEAEL | >6 | 1.32 | –
EAAGIGILY | >6 | 1.32 | –
LAMPFATPMEAE | >6 | – | –
TPRLPSSADVEFC | <0.5 | 16.7 | –
EVDPIGHVY | 6 | 1.1 | –
EVDPIGHLY [reference compound] | >6 | 2.3 | –
TPRLPSSADVEFCL | >6 | >20 | –
VPLDCVLYR | <0.5 | 20 | –
ILDTAGQEEY (listed as Homo sapiens) [55-64^WT, wild-type ras peptide 55-64, reference compound] | – | – | lysis of the BM36.1 cells pulsed with the peptide [3]: very low
EPAGIGILY | >6 | 0.4 | –
EAAGIGILTY | – | – | EC50 [4]: 0.01 nM
MPFATPMEA | >6 | 0.4 | EC50 [5]: 0.001 nM
LAMPFATPMEAEL | >6 | 0.58 | –
VPLDCVLYRY | >6 | 2.6 | –
TPRLPSSADVEF | >6 | 1.3 | –
ILDTAGREEY (listed as Homo sapiens) [55-64^Q61R, ras peptide 55-64 mutated at position 61 (Q61R)] | – | – | lysis of the BM36.1 cells pulsed with the peptide [3]: Considerable lysis
EPAGIGILTY | – | – | EC50 [4]: 0.05 nM
